Source: PubChem BioAssay AID1346428 (National Center for Advancing Translational Sciences (NCATS), 2018)
Among all 48,000 compounds or so, about 1,200 (2.5%) were called active. Inconclusive results (about 2%) are left out.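 The calls were made as follows: active = activation of at least 60% and not above a set upper limit (about 1 call in 100 departs from these limits); inconclusive = activation of 40% to 60%, or above that upper limit; inactive = activation under 40%.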 Some of the results follow.

Molecular target: Probable G-protein coupled receptor 32 (Homo sapiens) (UniProt O75388)
Assay: qHTS for Agonists of Human Resolvin D1 Receptor DRV1; also: 0% is about no effect
Conditions: CHO-K1 GPR32 beta-arrestin PathHunter luminescence, 90 min; at 76.9 µM; active compounds read high; zero percent set by DMSO-only wells
How it was run: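 Cells are plated overnight, treated with compounds in DMSO for 90 minutes at 37 °C, and developed with PathHunter detection reagent for 1 hour before luminescence is read; signal reflects beta-arrestin binding to GPR32 in engineered CHO-K1 cells.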

UniProt O75388, sequence (O75388 whole entry, looked up): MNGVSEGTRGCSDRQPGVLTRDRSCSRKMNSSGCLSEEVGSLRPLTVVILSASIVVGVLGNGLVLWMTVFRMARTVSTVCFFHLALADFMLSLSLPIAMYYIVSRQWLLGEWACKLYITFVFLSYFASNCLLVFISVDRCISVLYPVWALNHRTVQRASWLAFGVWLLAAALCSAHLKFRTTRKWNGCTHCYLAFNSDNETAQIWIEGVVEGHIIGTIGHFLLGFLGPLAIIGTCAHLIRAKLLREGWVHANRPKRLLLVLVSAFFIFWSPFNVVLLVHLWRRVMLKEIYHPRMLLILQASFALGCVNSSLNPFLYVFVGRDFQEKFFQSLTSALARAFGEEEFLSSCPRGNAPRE

activation, inactive:
Cc1ccc(C)c(CS(=O)(=O)c2cn(CC(=O)N(C(C)C)C(C)C)c3ccccc23)c1 -27.6%
COC(=O)CCn1cnc2onc(-c3cc(F)cc(F)c3)c2c1=O 13.4%
Fc1ccc2ncc3c(-c4ccccc4)n[nH]c3c2c1 -7.7%
CC(C)Sc1ncc(Cl)c(C(=O)Nc2ccc(S(=O)(=O)N(C)c3ccccc3)cc2)n1 -18.3%
Cn1ncc2c(Nc3cccc(F)c3)ncnc21 -17.4%
COc1cc(NC(=O)CN2CCN(CC(=O)Nc3ccc(F)cc3)CC2)cc(OC)c1 3.32%
COc1cc(C(CC(=O)NCCC(C)C)N2Cc3ccccc3C2=O)cc(OC)c1OC (stereo not drawn) -4.52%
Cc1ccc(Cn2c(C)c(CNCCCc3ccccc3)c(C(=O)O)c2C)cc1 32%
CCCCNC(=O)CSc1nnc(C)c2c(C)n(-c3ccccc3)nc12 -11.3%
CC1CCN(S(=O)(=O)c2ccc3c(c2)CCC(=O)N3CC(=O)Nc2cccc(C#N)c2)CC1 0.134%
CC(C)NC(=O)C1CCN(c2nc3ccccc3nc2C(F)(F)F)CC1 1.75%
Cc1ccc(C2=NN(CC(=O)NCCN(CC(C)C)CC(C)C)C(=O)CC2)cc1 -9.04%
Cc1ccc(-c2cc3c(n2-c2ccc(C)cc2)CC(C)(C)CC3=O)cc1 -6.98%
Cc1ccc(-c2noc(CNC(=O)c3ccccc3)n2)cc1 -5.41%
CCC1CN(C(=O)N2CCC(C(=O)NCc3ccccc3C)CC2)c2ccccc2O1 (stereo not drawn) -24.5%
O=C(NCc1ccccc1)c1ccc(CSc2nc3cccnc3n2Cc2ccccc2F)cc1 -23.9%
O=C(NCCOCCn1c(=O)oc2ccccc21)Nc1ccc(F)cc1 0%
COc1ccc(OCC(=O)Nc2cccc(-c3nc4ccccc4s3)c2C)cc1 -7.7%
COc1ccccc1OCC(=O)Nc1nc(-c2ccc(Br)cc2)ns1 -3.08%
Cc1nc(N2CCCC2)ncc1C(=O)Nc1ccc(F)cc1F 6.09%
Cc1cc2c(cc1S(=O)(=O)N(CCN(C)C)Cc1ccco1)OCC(=O)N2 -8.97%
Cc1ccc(S(=O)(=O)c2cn(C)c3cc(N4CCCC(C)C4)c(F)cc3c2=O)c(C)c1 (stereo not drawn) -25.3%
Cc1ccc(NC(=O)C2CCN(S(=O)(=O)c3c(C)noc3/C=C/c3ccco3)CC2)cc1C -27%
CC(C)N(Cc1ccccc1)C(=O)CCS(=O)(=O)c1ccc2c(c1)oc(=O)n2C -2.8%
Cc1ccccc1CSc1ncc(CO)n1Cc1ccc(F)cc1 15.6%
CCOc1ccc(-c2cc(-c3nc(-c4ccc(OC)c(OC)c4)no3)[nH]n2)cc1 10.1%
CCN(C(=O)Cn1cnc2sc(C)c(S(=O)(=O)N3CCN(c4ncccn4)CC3)c2c1=O)c1ccccc1F 4.05%
CC(=O)c1ccc(NC(=O)CC(c2cccs2)N2Cc3ccccc3C2=O)cc1 (stereo not drawn) -6.81%
COc1ccc(Cc2nc3ccccc3n2Cc2ccccc2F)cc1 -11.5%
Cc1cc(Cl)ccc1OCC(=O)N(Cc1ccco1)Cc1ccco1 9.53%
COc1ccc(-c2cn3cccnc3n2)cc1NC(=O)c1cc(C)cc(C)c1 -6.85%
CCOC(=O)c1ccc(NC(=O)c2ccc(=O)n(Cc3cccc(C)c3)c2)cc1 16.8%
CC(O)CNc1nc2c(c(=O)n(Cc3ccc(Cl)cc3)c(=O)n2C)n1C (stereo not drawn) 45.8%
COc1ccc(CCNC(=O)CCc2c(C)c3cc4c(C)coc4c(C)c3oc2=O)cc1OC -9.3%
COc1ccc(-c2nnc(C3CCN(S(=O)(=O)c4ccc(C)c(C)c4)CC3)o2)cc1 -6.66%
Cc1ccc(-n2ncc(C(=O)N3CCN(c4ccc(Cl)cc4)CC3)c2C2CCN(C(=O)OC(C)(C)C)CC2)c(C)c1 35.9%
Cc1cc2c(cc1S(=O)(=O)CCC(=O)NCCc1ccccc1)OCC(=O)N2 -23.3%
CCC1CN(C(=O)Nc2ccc(C)c(F)c2)c2ccccc2S1 (stereo not drawn) -18.6%
Cc1ccc(NC(=O)CN2CCSc3ccc(S(=O)(=O)N4CCCC4)cc32)cc1C 3.04%
O=C1CN(C(=O)c2ccc(S(=O)(=O)N3CCCC3)cc2)C(c2ccccc2)c2cc(Br)ccc2N1 (stereo not drawn) -15.8%
CCOc1ccc(-n2nc3cc(C)c(NC(=O)c4cc(OCC)c(OCC)c(OCC)c4)cc3n2)cc1 12%
COc1cc(OC)c(NS(=O)(=O)c2cc(-c3cnc(C4CC4)o3)ccc2C)cc1Cl -6.97%
Cc1nnc(N2CCC(C(=O)NCCc3ccccc3)CC2)c2nn(-c3ccc(Cl)cc3)c(C)c12 -5.65%
CC(C)(C)C(=O)NC1(C(F)(F)F)C(=O)Nc2c1c(=O)[nH]c(=O)n2-c1ccccc1 (stereo not drawn) -5.37%
O=C(CSc1nnc(-c2ccc([N+](=O)[O-])cc2)o1)Nc1ccccc1 -43.2%
COc1cc(NC(=O)Cn2c(=O)n(Cc3ccco3)c(=O)c3oc4ccccc4c32)cc(OC)c1 -27.7%
Cc1ccc(-c2nc(Cn3c(=O)cc(-c4ccccc4)c4c(C)nn(C)c43)c(C)o2)cc1 12%
Cc1cc(C)cc(NS(=O)(=O)c2ccc3[nH]cc(C(=O)NCc4ccccc4Cl)c(=O)c3c2)c1 -13.2%
CCOc1ccc(C(=O)N2CCC(c3noc(-c4ccc(S(=O)(=O)N5CCCC5)cc4)n3)CC2)cc1 -26%
CN(C1CCCCC1)S(=O)(=O)c1ccc2c(c1)c(=O)c(C(=O)N1CCN(c3ccccc3F)CC1)cn2C -2.99%
CCc1c(-c2ccccc2)nc2ccccc2c1C(=O)NCc1ccc(C)cc1 -24.9%
Cc1ccc(OCCn2nnc3sc4c(c3c2=O)CCC(C)C4)cc1 (stereo not drawn) 13.9%
Cn1cnc(S(=O)(=O)N2CCC(C(=O)N3CCN(c4ccccc4F)CC3)CC2)c1 -5.34%
